The record followed here is PMC4336329 (PLoS ONE, 2015).

The campaign covered roughly 310,000 compounds. About 14,000 (4.5%) showed an effect of 50% or more. The effect is printed as a negative number. The list shows a part of the results.
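Also: peak tail current of the secondary pulse compared with the same well before compound.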

This experiment deals with human ether-à-go-go-related gene (hERG) potassium channel (human, UniProt Q12809). Description: primary screen, population patch clamp on CHO cells stably expressing hERG.
human ether-à-go-go-related gene (hERG) potassium channel, sequence (Q12809 whole entry, looked up): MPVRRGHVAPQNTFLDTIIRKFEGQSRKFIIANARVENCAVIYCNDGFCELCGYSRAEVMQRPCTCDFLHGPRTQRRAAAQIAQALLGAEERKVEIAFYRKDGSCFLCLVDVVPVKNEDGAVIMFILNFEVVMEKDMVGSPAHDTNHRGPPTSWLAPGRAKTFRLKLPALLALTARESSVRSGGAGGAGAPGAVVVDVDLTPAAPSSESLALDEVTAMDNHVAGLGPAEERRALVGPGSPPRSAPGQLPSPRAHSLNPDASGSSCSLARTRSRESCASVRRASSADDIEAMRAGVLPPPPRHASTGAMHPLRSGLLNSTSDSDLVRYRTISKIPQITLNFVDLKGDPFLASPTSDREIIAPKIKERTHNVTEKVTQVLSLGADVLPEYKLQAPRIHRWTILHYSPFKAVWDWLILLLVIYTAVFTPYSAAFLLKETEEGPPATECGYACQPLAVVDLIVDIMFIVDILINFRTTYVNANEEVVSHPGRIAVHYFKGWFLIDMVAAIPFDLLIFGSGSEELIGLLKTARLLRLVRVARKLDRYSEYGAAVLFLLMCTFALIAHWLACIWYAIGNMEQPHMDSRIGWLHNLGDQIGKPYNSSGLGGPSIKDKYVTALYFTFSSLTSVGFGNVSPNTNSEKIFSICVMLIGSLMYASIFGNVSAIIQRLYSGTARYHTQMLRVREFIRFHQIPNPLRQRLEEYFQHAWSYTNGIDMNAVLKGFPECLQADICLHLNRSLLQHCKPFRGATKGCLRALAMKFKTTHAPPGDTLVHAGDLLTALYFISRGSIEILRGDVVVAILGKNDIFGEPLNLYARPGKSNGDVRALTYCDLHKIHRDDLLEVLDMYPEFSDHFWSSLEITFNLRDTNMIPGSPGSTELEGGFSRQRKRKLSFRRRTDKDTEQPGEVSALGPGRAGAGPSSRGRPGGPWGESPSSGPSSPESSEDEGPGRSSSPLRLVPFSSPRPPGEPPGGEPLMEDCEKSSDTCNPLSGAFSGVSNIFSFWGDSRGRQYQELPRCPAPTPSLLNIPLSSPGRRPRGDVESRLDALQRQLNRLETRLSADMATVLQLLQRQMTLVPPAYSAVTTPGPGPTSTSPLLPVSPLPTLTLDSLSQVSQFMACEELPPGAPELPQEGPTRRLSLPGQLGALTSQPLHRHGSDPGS
On to `CC1=NN(c2ccc(S(=O)(=O)O)cc2C)C(=O)C1`, for which the “hERG current change (%, negative = inhibition) at 10uM” value turned out to be 35%.
On to `COc1ccccc1OCC(=O)Nc1ccc(S(=O)(=O)N2CCCCCC2)cc1`, for which the “hERG current change (%, negative = inhibition) at 10uM” value is -6.81%.
Under `COCCn1c(SCC(=O)N2CCCc3ccccc32)nc2ccccc2c1=O` stands -72.6%.
With `N#CCCn1cc(C(CC(=O)c2ccc(Br)cc2)C(=O)O)c2ccccc21` (centres unmarked), the “hERG current change (%, negative = inhibition) at 10uM” value turned out to be 3.11%.
For `COC(=O)c1ccc(Sc2ccccc2NS(=O)(=O)c2ccc(NC(C)=O)cc2)nc1`, the “hERG current change (%, negative = inhibition) at 10uM” value is -9.89%.
Then `COc1cc(S(=O)(=O)N(Cc2cccs2)CC2CCCO2)ccc1-n1cnnn1` (centres unmarked), with -29%; and `Cc1ccc(S(=O)(=O)NCC2(c3ccccc3)CCOCC2)cc1`, with 16.1%.
Then `CCCCC(CC)C(=O)Oc1ccc(O)c(C(C)(C)C)c1` (centres unmarked), with 14.9%.
Take `COc1cc(/C=C/c2onc(C)c2[N+](=O)[O-])cc(OC)c1OC`: the “hERG current change (%, negative = inhibition) at 10uM” value is listed as 11.2%.
Then `CC(=O)c1ccc(OCC(O)CN2CCN(Cc3ccc4c(c3)OCO4)CC2)cc1.Cl` (centres unmarked), with -49.8%; and `O=C(O)CN1C(=O)/C(=C/c2ccccc2Br)Oc2ccccc21`, with 4.16%.
For `CCN(CC)S(=O)(=O)c1cc(C(=O)Nc2cc(Cl)ccc2N2CCN(C)CC2)ccc1Cl`, the “hERG current change (%, negative = inhibition) at 10uM” value is -53.5%.
Under `Cc1cc(OC(C)C(=O)N2C[C@H]3C[C@@H](C2)c2cccc(=O)n2C3)c2c(C)c(C)c(=O)oc2c1` (some centres unmarked) stands -0.917%.
Then `CCn1cc(C2=NOC(C(=O)Nc3ccccc3C(=O)OC)C2)c(C)n1` (centres unmarked), with -3.86%; and `COC(=O)/N=C/c1c(NCc2ccccc2)nc2c(C)cccn2c1=O`, with -13.2%; and `COc1ccc(C(=O)OC(C)C(=O)NC(C)CCc2ccccc2)c(OC)c1` (centres unmarked), with -6.18%.
As to `Cc1cccc(C)c1NC(=O)CN1CCNCC1`, the “hERG current change (%, negative = inhibition) at 10uM” value was -0.377%.
As for `COc1ccc(OC)c2c(C)cc(N3CCN(C(=O)c4ccc(C)cc4)CC3)nc12`, the “hERG current change (%, negative = inhibition) at 10uM” value is listed as -8.22%.
For the compound `O=[N+]([O-])c1ccc(/C=N/Nc2nc(N3CCCCCC3)nc(N3CCCCCC3)n2)o1`, the “hERG current change (%, negative = inhibition) at 10uM” value came to 4.65%.
Under `COc1ccc(C(=O)Nc2ccc(C(=O)N3CCOCC3)cc2)cc1OC` stands 11.6%.
Under `Cn1nnnc1SCC(=O)Nc1ccc(Oc2ccc(Cl)cc2)cc1` stands 6.99%.
Under `CCOc1ccc(OCC)c(NC(=O)C2CCCN(S(=O)(=O)c3c(C)n[nH]c3C)C2)c1` (centres unmarked) stands 8.8%; under `Nn1c(SCC(=O)Nc2ccc(S(N)(=O)=O)cc2)nnc1C(F)(F)F`, 0.037%; under `CCCCC/C=C\C/C=C\C/C=C\C/C=C\CCCC(=O)O`, 14.4%.
Turning to `CCc1cccc(NS(=O)(=O)c2ccc3c(c2)n(C)c(=O)n3C)c1`, the “hERG current change (%, negative = inhibition) at 10uM” value came out at 24.5%.
Then `COc1ccc(NS(=O)(=O)c2ccc(NC(=O)c3ccccc3Br)cc2)nn1`, with 25.8%.
Under `CCOC(=O)N1CCN(C(=O)C2c3cc(OC)c(OC)cc3C(=O)N3CCc4ccccc4C23)CC1` (centres unmarked) stands -1.86%.
Then `CC(NC(=O)C1CCCCC1)C(c1cccs1)N1CCN(C)CC1` (centres unmarked), with -3.65%; and `CCOc1ccccc1NC(=O)CSc1nncc2ccccc12`, with -24.3%.
As to `Cc1nc2ccccc2c(=O)n1/N=C/c1ccccc1Cl`, the “hERG current change (%, negative = inhibition) at 10uM” value came to 12.8%.
For the compound `COc1ccc(NC(=O)c2ccccc2-c2ccccc2C(=O)O)cc1`, the “hERG current change (%, negative = inhibition) at 10uM” value came to 11.1%.
Then `COc1cccc(N2CC(C(=O)Nc3nnc(SCC(=O)c4ccccc4)s3)CC2=O)c1` (centres unmarked), with -1.18%; and `O=C(NCN1CCc2ccccc2C1)c1ccccc1`, with -10.7%.
Under `Cc1ccc2nc(SCC(=O)NCc3ccccc3)nc(=O)n2c1` stands 2.24%; under `COc1ccc(N(C(=O)c2snc(C(N)=O)c2N)C(C(=O)NC2CCCC2)c2ccc(F)cc2)c(OC)c1` (centres unmarked), 22.9%; under `COc1ccc(OC)c(NC(=O)C2CCCN(S(=O)(=O)c3c(C)nn(C)c3C)C2)c1` (centres unmarked), 10.8%.
As to `CCOc1ccc(NC(=O)CN(C)C(=O)C2CC(=O)N(c3ccc4c(c3)OCCO4)C2)cc1OCC` (centres unmarked), the “hERG current change (%, negative = inhibition) at 10uM” value is reported as -22.3%.
`COc1ccc(CNC(=O)C2CC(c3ccccc3C(F)(F)F)=NO2)cc1` (centres unmarked): the “hERG current change (%, negative = inhibition) at 10uM” value is on record as -10%.
Then `CCOC(=O)CC(NC(C)=O)c1ccc([N+](=O)[O-])cc1` (centres unmarked), with -1.79%.
Turning to `CN(C)C(=O)N1CCN(C(=O)c2ccco2)CC1`, the “hERG current change (%, negative = inhibition) at 10uM” value is on record as 2.88%.
Under `Cc1c(O)ccc(NC(=O)/C=C/c2ccccc2)c1C` stands 17.6%; under `Cc1cc(C)nc(Sc2ccc(C=O)cc2[N+](=O)[O-])n1`, 6.95%.
Under `O=C1C2Sc3[nH]c(=O)sc3C(c3ccccc3)C2C(=O)N1c1ccc(Cl)cc1` (centres unmarked) stands -11.1%; under `CS(=O)(=O)Cc1ccc(C(=O)N(CCc2ccccc2)Cc2ccccc2)cc1`, -16.2%; under `CN(C)c1nc(N(C)C)nc(N(C#N)CN2C(=O)c3ccccc3S2(=O)=O)n1`, -15.8%.
Then `CSc1nc2sc3c(c2c(=O)n1CC(C)C)CC(C)(C)OC3`, with 17.2%; and `CCC(C)NC(=O)C1CCN(S(=O)(=O)c2cc([N+](=O)[O-])ccc2Cl)CC1` (centres unmarked), with -0.184%.
`CCCCCCCC(=O)N/N=C/c1ccc([N+](=O)[O-])o1`: the “hERG current change (%, negative = inhibition) at 10uM” value is reported as -38.5%.
Under `COc1ccc(C)cc1NC(=O)CSc1nc(SC)ns1` stands 4.92%; under `O=C(CSc1nnc(-c2ccc(Cl)cc2)o1)N1CCOCC1`, 7.01%.
Then `CCCCNC(=O)c1cc(-c2ccc(OC)c(OC)c2)on1`, with -9.1%; and `COC(=O)CSC1=C(C#N)C(=O)NC2(CCCCC2)S1`, with 16.3%.
Under `CCN(CC)c1nc(C(N)=O)cc(-c2ccccc2)n1` stands -0.608%.
Regarding `O=C1C=CC(=O)N1`, the “hERG current change (%, negative = inhibition) at 10uM” value is given as 20.1%.
Under `Cc1ccc(SCC(=O)NC(=O)Nc2ccc3c(c2)OCCO3)cc1C` stands -9.53%; under `Cc1ccccc1Sc1ncccc1[N+](=O)[O-]`, -12%.
